# Source: the supplement of paper PMC8728848
# The other results are listed elsewhere or left out.
# B1: Cohesin-marm-DC-ASGPR (protein)
# chain: LDITSHHHHHHDDLDAVRIKVDTVNAKPGDTVRIPVRFSGIPSKGIANCDFVYSYDPNVLEIIEIEPGDIIVDPNPDKSFDTAVYPDRKIIVFLFAEDSGTGAYAITKDGVFATIVAKVKEGAPNGLSVIKFVEVGGFANNDLVEQKTQFFDGGVNVGDTTEPATPTTPVTTPTTTDDLDAASSKFQRDLVTLRTDFSNFTSNTLAEIQALTSQGSSLQETIASLKAEVEGHKQELQAGASELQEHNKQKAHLGRCPHTCVCPSSFVCVPVHSEILLRVQQLVQDLNKLSCQVAILKNNATTERTCCPINWVEHQGSCYWFSRSGKTWPEAERYCQLENTHLVVINSREEQNFVQAHLGSAYTWMGLSDPEGVWKWVDGTDYSSGFQNWKPGQPDDWQGHGLGGGEDCAHFHPDGRWNDDVCQRSYHWVCEAGLTQASQDSHAS
# Tests used:
# Assay in all cases: glycan array binding signal (z-score within array); higher = stronger binding
# Details in all cases: glycan notation: IUPAC condensed, linker removed
# [1] = biological target: Neu5Ac(a2-8)Neu5Ac
# In short: (§1)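 The binding signal is a Z-score computed within each array and averaged over linkers. Arrays of the same protein sequence at different concentrations or buffers were also averaged together. Data originate from 3228 arrays in the Consortium for Functional Glycomics database, kept only where the protein sequence was available.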
# [2] = biological target: Neu5Ac(a2-8)Neu5Ac(a2-3)Gal(b1-3)GalNAc(b1-4)[Neu5Ac(a2-3)]Gal(b1-4)Glc
# In short: as §1
# [3] = biological target: Neu5Ac(a2-8)Neu5Ac(a2-3)Gal(b1-3)GalNAc(b1-4)[Neu5Ac(a2-8)Neu5Ac(a2-3)]Gal(b1-4)Glc
# In short: as §1
# [4] = biological target: Neu5Ac(a2-8)Neu5Ac(a2-3)Gal(b1-4)Glc
# In short: as §1
# [5] = biological target: Neu5Ac(a2-8)Neu5Ac(a2-3)Gal(b1-4)GlcNAc
# In short: as §1
# [6] = biological target: Neu5Ac(a2-8)Neu5Ac(a2-3)[Gal(b1-3)GalNAc(b1-4)]Gal(b1-4)Glc
# In short: as §1
# [7] = biological target: Neu5Ac(a2-8)Neu5Ac(a2-3)[GalNAc(b1-4)]Gal(b1-4)Glc
# In short: as §1
# [8] = biological target: Neu5Ac(a2-8)Neu5Ac(a2-8)Neu5Ac
# In short: as §1
# [9] = biological target: Neu5Ac(a2-8)Neu5Ac(a2-8)Neu5Ac(a2-3)Gal(b1-4)Glc
# In short: as §1
# [10] = biological target: Neu5Ac(a2-8)Neu5Ac(a2-8)Neu5Ac(a2-3)[Gal(b1-3)GalNAc(b1-4)]Gal(b1-4)Glc
# In short: as §1
# [11] = biological target: Neu5Ac(a2-8)Neu5Ac(a2-8)Neu5Ac(a2-3)[GalNAc(b1-4)]Gal(b1-4)Glc
# In short: as §1
# [12] = biological target: Neu5Ac(a2-8)Neu5Ac(a2-8)Neu5Ac(a2-8)Neu5Ac(a2-3)[GalNAc(b1-4)]Gal(b1-4)Glc
# In short: as §1
# [13] = biological target: Neu5Ac(a2-8)Neu5Gc(a2-3)Gal(b1-4)GlcNAc
# In short: as §1
# [14] = biological target: Neu5Ac(b2-6)Gal(b1-4)GlcNAc
# In short: as §1
# [15] = biological target: Neu5Ac(b2-6)GalNAc
# In short: as §1
# [16] = biological target: Neu5Ac9Ac(a2-3)Gal(b1-3)GlcNAc
# In short: as §1
# [17] = biological target: Neu5Ac9Ac(a2-3)Gal(b1-4)GlcNAc
# In short: as §1
# [18] = biological target: Neu5Ac9Ac(a2-6)Gal(b1-4)GlcNAc
# In short: as §1
# [19] = biological target: Neu5Gc(a2-3)Gal(b1-3)GlcNAc
# In short: as §1
# [20] = biological target: Neu5Gc(a2-3)Gal(b1-3)[Fuc(a1-4)]GlcNAc
# In short: as §1
# [21] = biological target: Neu5Gc(a2-3)Gal(b1-4)Glc
# In short: as §1
# [22] = biological target: Neu5Gc(a2-3)Gal(b1-4)GlcNAc
# In short: as §1
# [23] = biological target: Neu5Gc(a2-3)Gal(b1-4)GlcNAc(b1-3)Gal(b1-4)GlcNAc(b1-2)Man(a1-3)[Neu5Gc(a2-3)Gal(b1-4)GlcNAc(b1-3)Gal(b1-4)GlcNAc(b1-2)Man(a1-6)]Man(b1-4)GlcNAc(b1-4)GlcNAc
# In short: as §1
# [24] = biological target: Neu5Gc(a2-3)Gal(b1-4)[Fuc(a1-3)]GlcNAc
# In short: as §1
# [25] = biological target: Neu5Gc(a2-6)Gal(b1-4)GlcNAc
# In short: as §1
# [26] = biological target: Neu5Gc(a2-6)GalNAc
# In short: as §1
# [27] = biological target: Neu5Gc(a2-8)Neu5Ac(a2-3)Gal(b1-4)GlcNAc
# In short: as §1
# [28] = biological target: Neu5Gc(a2-8)Neu5Gc(a2-3)Gal(b1-4)GlcNAc
# In short: as §1
# [29] = biological target: Neu5Gc(a2-8)Neu5Gc(a2-3)Gal(b1-4)GlcNAc(b1-3)Gal(b1-4)GlcNAc
# In short: as §1
# [30] = biological target: Neu5Gc(a2-8)Neu5Gc(a2-6)Gal(b1-4)GlcNAc
# In short: as §1
# [31] = biological target: Neu5Gc(b2-6)Gal(b1-4)GlcNAc
# In short: as §1
binder,measurement,setting,value
B1,glycan array binding signal (z-score),[1],-0.306
same,glycan array binding signal (z-score),[2],-0.301
same,glycan array binding signal (z-score),[3],-0.296
same,glycan array binding signal (z-score),[4],-0.303
same,glycan array binding signal (z-score),[5],-0.238
same,glycan array binding signal (z-score),[6],-0.05
same,glycan array binding signal (z-score),[7],3.43
same,glycan array binding signal (z-score),[8],-0.309
same,glycan array binding signal (z-score),[9],-0.311
same,glycan array binding signal (z-score),[10],-0.305
same,glycan array binding signal (z-score),[11],2.25
same,glycan array binding signal (z-score),[12],5.27
same,glycan array binding signal (z-score),[13],-0.302
same,glycan array binding signal (z-score),[14],-0.312
same,glycan array binding signal (z-score),[15],-0.276
same,glycan array binding signal (z-score),[16],0.049
same,glycan array binding signal (z-score),[17],-0.291
same,glycan array binding signal (z-score),[18],-0.219
same,glycan array binding signal (z-score),[19],-0.264
same,glycan array binding signal (z-score),[20],-0.277
same,glycan array binding signal (z-score),[21],-0.276
same,glycan array binding signal (z-score),[22],-0.169
same,glycan array binding signal (z-score),[23],-0.276
same,glycan array binding signal (z-score),[24],-0.107
same,glycan array binding signal (z-score),[25],-0.285
same,glycan array binding signal (z-score),[26],2.81
same,glycan array binding signal (z-score),[27],-0.308
same,glycan array binding signal (z-score),[28],-0.287
same,glycan array binding signal (z-score),[29],-0.303
same,glycan array binding signal (z-score),[30],-0.31
same,glycan array binding signal (z-score),[31],-0.304
